Test results from paper PMC4336329 (PLoS ONE, 2015).
Hit rate of the full screen: of about 310,000 compounds, about 14,000 (4.5%) showed an effect of 50% or more. The effect is printed as a negative number. Some of the results follow.

Molecular target: human ether-à-go-go-related gene (hERG) potassium channel (human, UniProt Q12809)
Test: primary screen, population patch clamp on CHO cells stably expressing hERG
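Further: peak tail current of the secondary pulse compared with the same well before compound.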

Chain of human ether-à-go-go-related gene (hERG) potassium channel (Q12809 whole entry, looked up): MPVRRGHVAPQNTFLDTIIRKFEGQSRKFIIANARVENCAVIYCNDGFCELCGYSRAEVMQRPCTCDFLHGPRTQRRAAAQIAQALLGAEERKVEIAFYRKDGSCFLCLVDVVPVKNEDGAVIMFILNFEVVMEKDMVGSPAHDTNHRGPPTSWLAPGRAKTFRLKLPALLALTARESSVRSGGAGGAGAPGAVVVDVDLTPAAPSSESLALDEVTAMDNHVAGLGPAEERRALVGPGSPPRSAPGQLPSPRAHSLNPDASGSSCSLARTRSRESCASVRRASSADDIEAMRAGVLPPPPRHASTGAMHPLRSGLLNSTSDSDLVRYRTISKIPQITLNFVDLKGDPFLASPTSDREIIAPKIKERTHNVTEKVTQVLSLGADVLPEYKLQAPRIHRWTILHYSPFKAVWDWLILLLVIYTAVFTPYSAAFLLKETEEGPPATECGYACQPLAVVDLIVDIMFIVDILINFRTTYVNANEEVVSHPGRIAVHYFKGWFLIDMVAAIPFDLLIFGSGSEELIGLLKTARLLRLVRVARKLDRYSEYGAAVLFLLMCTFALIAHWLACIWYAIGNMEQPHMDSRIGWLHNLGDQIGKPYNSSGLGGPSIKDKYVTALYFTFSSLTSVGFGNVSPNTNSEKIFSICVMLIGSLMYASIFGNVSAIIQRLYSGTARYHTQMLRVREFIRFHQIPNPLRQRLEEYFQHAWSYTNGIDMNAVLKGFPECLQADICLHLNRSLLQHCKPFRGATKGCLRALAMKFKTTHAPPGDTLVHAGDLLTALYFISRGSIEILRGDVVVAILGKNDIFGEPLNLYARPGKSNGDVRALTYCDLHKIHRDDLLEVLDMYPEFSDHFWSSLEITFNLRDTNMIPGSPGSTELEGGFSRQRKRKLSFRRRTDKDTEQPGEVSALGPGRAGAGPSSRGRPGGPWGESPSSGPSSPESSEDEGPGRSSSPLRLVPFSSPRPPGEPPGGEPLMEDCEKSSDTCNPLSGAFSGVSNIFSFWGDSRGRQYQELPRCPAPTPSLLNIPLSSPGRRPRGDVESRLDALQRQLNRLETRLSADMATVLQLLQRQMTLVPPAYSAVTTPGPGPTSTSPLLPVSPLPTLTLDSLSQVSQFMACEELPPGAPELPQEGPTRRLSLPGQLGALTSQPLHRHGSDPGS

Row | Compound | hERG current change (%, negative = inhibition) at 10uM [%]
1 | CC1(NC(=O)CCNC(=O)c2ccc(C(C)(C)C)cc2)CCS(=O)(=O)C1 (stereo not drawn) | 4.38
2 | CC(Oc1ccc(Cl)cc1)c1ccnc(N)n1 (stereo not drawn) | 14.4
3 | COc1cc2c(cc1OC)CN(C(=O)Cc1c(F)cccc1Cl)CC2 | 11.1
4 | COc1ccccc1-c1nc2n(n1)C(c1cccs1)C(C(=O)Nc1cccnc1)=C(C)N2 (stereo not drawn) | -31.7
5 | CCn1cc(C(=O)NCC2CCCO2)c(=O)c2cc(S(=O)(=O)N3CCCCC3)ccc21 (stereo not drawn) | -34
6 | c1ccc(Nc2n[nH]nc2-c2ccccc2)cc1 | -39.5
7 | O=C(NCc1ccco1)c1cccc(NS(=O)(=O)c2ccccc2F)c1 | -6.09
8 | C=C1c2ccccc2S(=O)(=O)N(Cc2ccccc2)C1COCc1ccccc1 (stereo not drawn) | -3.54
9 | N#Cc1ccccc1OCC(=O)NNC(=O)CNC(=O)c1cccc(Br)c1 | 0.905
10 | O=C(Nc1ccc(N2CCCCC2)cc1)c1ccc(F)cc1F | 9.43
11 | O=C(CN1CCCCCCC1)N/N=C/c1ccc(F)c(F)c1 | -33.7
12 | Cc1cccc(N(C(=O)CNC(=O)c2cccs2)C(C(=O)NC2CCCC2)c2cccnc2)c1 (stereo not drawn) | 1.66
13 | O=[N+]([O-])c1cc(F)c(N2CCCCC2)cc1N1CCOCC1 | -31.8
14 | COc1ccccc1C(=O)N/C(=C/c1ccc(Br)cc1)C(=O)N1CCCC1 | -48.9
15 | COc1nc(N)nc(CC(=O)C2CC2)n1 | 10.2
16 | O=C(CN1CCN(S(=O)(=O)c2cccc(Cl)c2)CC1)N1CCCCC1 | -24.8
17 | Cc1cc(C)n(C(=O)CNc2ccccc2Cl)n1 | 13.5
18 | Cc1cc(NC(=O)/C=C/c2ccco2)ccc1NC(=O)c1ccccc1 | 15.5
19 | O=C(O)c1ccc(/C=N/n2c(C3CCCCC3)n[nH]c2=S)cc1 | 17.2

Row | Compound | hERG current change (%, negative = inhibition) at 10uM [%]
20 | CCCC(C)c1nnc(NC(=O)COc2ccc3c(c2)OCO3)s1 (stereo not drawn) | 8.27
21 | CCc1ccc(NC(=O)C(=O)N/N=C(\C)CC(=O)NCCOC)cc1 | -2.99
22 | Cn1nnnc1SCc1cc(=O)n2ccsc2n1 | 2.28
23 | Cc1nn(C)c(Oc2cccc(C(F)(F)F)c2)c1C#N | -7.4
24 | COC(=O)c1c(NC(=O)C2=COCCO2)sc(C)c1C | 2.14
25 | CC(=O)c1cc(C#N)c(Oc2ccc(F)cc2)nc1C | 13.7
26 | COc1cccc(NC(=O)COC(=O)Cc2ccc(Cl)cc2)c1 | 10.7
27 | Cc1nn(C)cc1/C=N\NC(=O)c1csc2c1CCCC2 | 23.2
28 | CCOP(=O)(OCC)c1nc(-c2cccc3ccccc23)oc1NCc1ccccc1 | 10.2
29 | CCNC(=O)COC(=O)c1cc(C)nc2ccccc12 | -2.84
30 | Cn1c(=O)cc(Nc2ccccc2)c2c(=O)n(-c3ccccc3)c(=O)n(-c3ccccc3)c21 | -16.5
31 | Cc1cc(N)n2nc(C)c(-c3ccc(Cl)cc3)c2n1 | -4.26
32 | COc1cc(CNCCc2ccccc2)ccc1OCC(N)=O.Cl | -17.4
33 | O=C(CC(=O)NN=C1CCCC1)NCCc1ccccc1 | 3.81
34 | O=c1c(-c2nnc(SCc3ccc(Cl)cc3Cl)o2)cccn1Cc1ccccc1 | -62.5
35 | CC1(C)CC(=O)C(N=Nc2c(Cl)cc(Cl)cc2Cl)=C(O)C1 | 27.6
36 | O=C(CN1CCN(C(=O)c2ccccc2)CC1)Nc1ncc(Br)cc1Br | -78.1
37 | O=C(CSc1nnc(-c2ccncc2)n1CC1CCCO1)Nc1nccs1 (stereo not drawn) | 16.9
38 | COc1ccc(-c2nnc(SCC(=O)N(Cc3ccccc3)C(C)(C)C)o2)cc1OC | -22.9

Row | Compound | hERG current change (%, negative = inhibition) at 10uM [%]
39 | CN(Cc1cccnc1)Cc1cn(C)nc1-c1cccc(Cl)c1 | -39.7
40 | O=C(Cn1ccc(C(F)(F)F)n1)N=Nc1c(O)[nH]c2ccc(Br)cc12 | -12
41 | CC(=O)CC(C)(C)S(=O)(=O)c1ccc(Oc2ccc(S(=O)(=O)C(C)(C)CC(C)=O)cc2)cc1 | -5.22
42 | Cl.O=C(c1c(F)cccc1F)N(Cc1ccccn1)C1CC1 | 3.16
43 | C=CCOc1ccc(C2/C(=C(/O)c3ccc4c(c3)CC(C)O4)C(=O)C(=O)N2CCCN2CCOCC2)cc1 (stereo not drawn) | 14
44 | CCCC[C@@H]1CCCO[C@@](C(=O)NCc2cc(C)n(C)n2)(C(F)(F)F)C1 | -2.7
45 | COc1ccc(NC(=O)CCNC(=O)Cn2ccc3ccccc3c2=O)cc1OC | 14.2
46 | CC(=O)c1coc2ccc(OCCN3CCCCC3)cc12 | -10.3
47 | O=C(O)c1ccc(NCc2cccnc2)cc1 | 16.6
48 | Cc1ccccc1NC(=O)C12CC3CCC1(C)C3(C)CO2 (stereo not drawn) | 1.82
49 | S=C(NCc1ccco1)N/N=C/c1ccccc1Cl | 14.1
50 | N#CCC(=O)Nc1ccc(C(=O)Nc2ccc3c(c2)OCO3)cc1 | 6.93
51 | COc1ccc(CN2CCC(Oc3ccc(C(=O)N4CCCCC4)cc3)CC2)cc1C | -45.7
52 | COc1ccc(CNC(=O)CCC2N=C3c4ccccc4N=C(SCC(=O)NCC4CCCO4)N3C2=O)cc1 (stereo not drawn) | 7.34
53 | O=C(N/N=C/c1cccc(O)c1)c1csc2ccccc12 | 2
54 | CN(C)CCOC(=O)C1(c2ccccc2)CCOCC1.Cl | 2.37
55 | O=C(CC1C(=O)OCC2CCCCN21)Nc1ccccc1C(F)(F)F.O=C(O)C(=O)O (stereo not drawn) | 2.1
56 | CC(=O)c1ccc(NC(=O)[C@@]2(CC(=O)O)CC(/C=C/c3ccccc3)=NO2)cc1 | 13.3
57 | COc1cc(NC(=O)c2cc(C)no2)c(OC)cc1Cl | 17.9
